# PubChem BioAssay (NCATS)
# The inconclusive results got no clear call from the source; some entries with a clear call stand among them for comparison. For some assays here: Potencies beside an inconclusive call are fits to weak or partial responses and may not hold up. Activity calls are given as the source filed them. Unless noted, calls follow the shape of the dose curve; as a rule, active = well fitted curve in the direction sought with a large enough effect; inconclusive = small, poorly fitted or top-dose-only effect, or another doubt; inactive = no such curve, though single readings can be large; an effect the other way counts as inactive or inconclusive.
# How the values were obtained:
# [1] = biological target: 3',5'-cyclic-AMP phosphodiesterase 4B (Homo sapiens) (UniProt Q07343); experiment: qHTS Assay for Inhibitors of PDE-IV (AID 607; active = well fitted activation curve with a large enough effect in the main read-out, with a control signal flat, not every such curve was filed as active; inconclusive = small, poorly fitted or top-dose-only effect, or effect the other way, or a change in a side signal; also: potency is read from the fitted curve at half-maximal effect); conditions: HEK293 ACTOne CNG channel cells, membrane potential fluorescence; activation (PDE inhibition): at 22.9 µM (top of the series)
# How it was run: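 Cell-based read-out of cAMP via a modified cyclic nucleotide-gated channel and membrane potential dye (535/590 nm) in HEK293 cells expressing PDE4 endogenously. Compounds tested up to 22.9 uM final; 100 uM RO 20-1724 reference.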
# [2] = Cytometric Cell-Based qHTS for Inhibitors of the mTORC1 Signaling Pathway in MEF (Tsc2-/-, p53-/-) Cells (AID 2660); also: potency is read from the fitted curve at half-maximal effect;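 as to activity change, negative = inhibition: Tsc2 and p53 null MEFs carrying empty vector with compound for 24 h; percent of cells above a phospho-rpS6 to PI ratio cutoff in each well; plate controls were DMSO for no effect and rapamycin for full effect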
# How it was run: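 Immunofluorescence qHTS of rpS6 Ser235/236 phosphorylation: MEFs (Tsc2-/-, p53-/-) treated 24 h, 37 C, in DMEM + 10% FBS. Alexa-488 signal normalized to PI count, referenced to rapamycin (7.5 nM) and DMSO; PI cell number recorded for viability.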
# [3] = biological target: D(1A) dopamine receptor (Homo sapiens) (UniProt P21728); experiment: HTS Assay for Allosteric Agonists of the Human D1 Dopamine Receptor: Primary Screen for Antagonists (AID 488983);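 also: calcium flux response to an EC80 dopamine challenge measured with no-wash dye; nearly all actives have a fitted effect of over 65% in size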; also: potency is read from the fitted curve at half-maximal effect; as to activity change, negative = inhibition: % is scaled to controls: 0 for no effect and ±100 for the full control effect
# Sequence of UniProt P21728 (P21728 whole entry, looked up): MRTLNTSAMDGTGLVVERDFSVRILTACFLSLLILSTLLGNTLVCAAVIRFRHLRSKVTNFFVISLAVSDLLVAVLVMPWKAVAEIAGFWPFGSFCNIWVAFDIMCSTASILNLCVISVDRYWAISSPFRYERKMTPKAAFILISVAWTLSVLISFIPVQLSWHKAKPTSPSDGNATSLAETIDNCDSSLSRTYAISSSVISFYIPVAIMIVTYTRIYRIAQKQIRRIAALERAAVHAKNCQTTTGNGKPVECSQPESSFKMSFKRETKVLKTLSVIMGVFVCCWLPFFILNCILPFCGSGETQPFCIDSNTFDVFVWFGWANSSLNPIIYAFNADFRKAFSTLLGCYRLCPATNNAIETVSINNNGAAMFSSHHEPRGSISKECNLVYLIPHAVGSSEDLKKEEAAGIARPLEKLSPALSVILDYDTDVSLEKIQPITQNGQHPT
# How it was run: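 Cells are induced with tetracycline and incubated overnight at 30 C, then loaded with calcium dye for 30 to 90 minutes at room temperature. Compound addition is followed by a 180 s read, then an EC80 dopamine addition and another 180 s read.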
# [4] = Quantitative high throughput screen for delayed death inhibitors of the malarial parasite plastid, 48 hour incubation (AID 488752); also: potency is read from the fitted curve at half-maximal effect; nearly all actives have a fitted effect of over 65% in size
# How it was run: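 Readout is firefly luciferase luminescence from a reporter integrated into the parasite genome, with lower signal taken as inhibited growth. Infected red cells (0.1% parasitemia, 2% hematocrit final) are cultured with compound for one 48 h cycle at 37 C.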
# [5] = biological target: Muscarinic acetylcholine receptor M1 (Rattus norvegicus) (UniProt P08482); experiment: qHTS Assay for Antagonists of Acetylcholine Muscarinic M1 Receptor: Measurement of IP-One Response (AID 944); also: potency is read from the fitted curve at half-maximal effect; nearly all actives have a fitted effect of over 75% in size
# Sequence of UniProt P08482 (P08482 whole entry, looked up): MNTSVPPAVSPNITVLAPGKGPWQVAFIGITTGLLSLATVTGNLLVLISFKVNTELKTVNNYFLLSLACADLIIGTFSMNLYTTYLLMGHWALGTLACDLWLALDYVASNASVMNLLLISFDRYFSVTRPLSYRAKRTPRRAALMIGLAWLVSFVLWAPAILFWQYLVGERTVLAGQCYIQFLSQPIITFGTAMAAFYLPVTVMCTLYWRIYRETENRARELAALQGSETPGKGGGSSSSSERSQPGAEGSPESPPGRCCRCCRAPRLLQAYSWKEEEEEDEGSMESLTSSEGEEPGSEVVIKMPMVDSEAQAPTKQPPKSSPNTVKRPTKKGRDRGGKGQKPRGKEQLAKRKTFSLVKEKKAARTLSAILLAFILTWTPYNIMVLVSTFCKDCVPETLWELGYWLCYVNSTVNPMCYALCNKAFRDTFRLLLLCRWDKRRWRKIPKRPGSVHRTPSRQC
# [6] = qHTS Validation Assay to Find Inhibitors of Chronic Active B-Cell Receptor Signaling (AID 485345; active = well fitted curve in the direction sought with a large enough effect in the main read-out, with a control signal flat, not every such curve was filed as active; inconclusive = small, poorly fitted or top-dose-only effect, or effect the other way, or a change in a side signal; inactive = no such curve, though single readings can be large or run the other way; also: potency is read from the fitted curve at half-maximal effect;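 as to activity change: 0% = untreated basal cells and 100% = 10 µM MG-132 proteasome inhibitor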); conditions: ABC-DLBCL cells, chronic BCR signaling reporter; activity change: CBG luciferase, at 46.1 µM (top of the series)
# How it was run: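 Read-out: ratio of filter-corrected green (IkappaBalpha fusion) to red (native) luciferase signal in doxycycline-induced TMD8 cells after 4 h at 37C. Titration spanned 46 uM–3 nM; Data were normalised to basal cells and 10 uM MG-132 wells.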
# [7] = Nrf2 qHTS screen for inhibitors: Validation (AID 493153; active = well fitted inhibition curve with a large enough effect in the main read-out, with a control signal flat, not every such curve was filed as active; inconclusive = small, poorly fitted or top-dose-only effect, or effect the other way, or a change in a side signal; inactive = no such curve, though single readings can be large or run the other way; also: potency is read from the fitted curve at half-maximal effect;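 as to activity change, negative = inhibition: A549 cells with ARE-driven firefly luciferase reporter reporting Nrf2 activity; % of control where 0% means no effect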)
# How it was run: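 Luminescence from an ARE-firefly luciferase reporter in A549 cells gives Nrf2 inhibition; an earlier CellTiter-Fluor fluorescent read flags cytotoxicity. Cells in 5% FBS OPTI-MEM received compound dilution series for 18-24 h at 37°C.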
# [8] = High Content Imaging Cell-Based qHTS for Inhibitors of the mTORC1 Signaling Pathway in MEF Cells (AID 2667); also: potency is read from the fitted curve at half-maximal effect;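 as to activity change, negative = inhibition: Tsc2-/- p53-/- MEFs stably re-expressing wild-type Tsc2 exposed 24 h; plate controls were DMSO wells for no effect and rapamycin control wells for full effect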
# How it was run: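 Immunofluorescence for rpS6 phosphorylation in MEFs of Tsc2-/-, p53-/- background rescued with WT Tsc2. Compound exposure lasted 24 hrs. Inhibition was scored against rapamycin-treated control wells.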
# [9] = biological target: Thioredoxin reductase 1, cytoplasmic (Rattus norvegicus) (UniProt O89049); experiment: qHTS Assay for Inhibitors of Mammalian Selenoprotein Thioredoxin Reductase 1 (TrxR1) (AID 488773); conditions: Potency: inhibition; also: nearly all actives have a fitted effect of over 40% in size; also: potency is read from the fitted curve at half-maximal effect;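 as to activity change, negative = inhibition: drop in NADPH fluorescence over an 8 min run after selenite addition; % is scaled to controls: 0 for no effect and ±100 for the full control effect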
# Sequence of UniProt O89049 (O89049 whole entry, looked up): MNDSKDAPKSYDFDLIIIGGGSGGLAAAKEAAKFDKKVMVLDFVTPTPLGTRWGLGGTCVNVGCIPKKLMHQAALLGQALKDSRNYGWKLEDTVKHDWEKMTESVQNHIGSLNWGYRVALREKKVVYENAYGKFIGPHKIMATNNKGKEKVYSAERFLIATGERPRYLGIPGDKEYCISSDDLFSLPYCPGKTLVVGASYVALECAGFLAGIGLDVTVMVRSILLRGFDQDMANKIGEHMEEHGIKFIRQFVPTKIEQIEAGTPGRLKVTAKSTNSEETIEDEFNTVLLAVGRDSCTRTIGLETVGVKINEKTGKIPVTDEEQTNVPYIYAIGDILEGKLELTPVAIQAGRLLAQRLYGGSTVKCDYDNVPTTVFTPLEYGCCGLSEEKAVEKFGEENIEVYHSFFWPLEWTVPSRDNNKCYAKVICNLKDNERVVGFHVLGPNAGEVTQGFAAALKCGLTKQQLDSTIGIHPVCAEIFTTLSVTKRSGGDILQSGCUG
# How it was run: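 Steps: enzyme (90 nM) plus NADPH (400 uM final), 5 min at ~22 deg C; compound added, 15 min; selenite (400 uM final) added; fluorescence followed for 8 min. Concentration-response curves derived from the normalized delta values.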
# [10] = biological target: Peptidyl-prolyl cis-trans isomerase NIMA-interacting 1 (Homo sapiens) (UniProt Q13526); experiment: qHTS Validation Assay to Find Inhibitors of Pin1 (AID 504536; active = well fitted inhibition curve with a large enough effect in the polarisation, with a control signal flat, not every such curve was filed as active; inconclusive = small, poorly fitted or top-dose-only effect, or effect the other way; the % refers to the polarisation; also: potency is read from the fitted curve at half-maximal effect)
# Sequence of UniProt Q13526 (Q13526 whole entry, looked up): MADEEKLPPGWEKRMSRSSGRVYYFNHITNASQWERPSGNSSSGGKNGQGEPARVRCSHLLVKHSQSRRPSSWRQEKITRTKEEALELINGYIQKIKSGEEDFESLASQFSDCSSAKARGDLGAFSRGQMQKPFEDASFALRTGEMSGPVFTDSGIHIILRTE
# How it was run: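 Fluorescence polarization competition: compounds (titration) displace HiFluor-488-labeled Pin1-1b peptide from Pin1 (0.3 uM final) in pH 7.5 HEPES buffer with DTT, 10 min at room temperature; %Activity normalized to no-enzyme wells, curves fitted.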
# [11] = qHTS Assay for Identification of Small Molecule Agonists for Thrombopoietin (TPO) Signaling Pathway (AID 917); also: potency is read from the fitted curve at half-maximal effect
# How it was run: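 We measured Glycoprotein IIb promoter–luciferase output in IL-3-starved Ba/F3 murine cells expressing the human TPO receptor after 24 hrs at 37 C with compounds and 26 pM TPO.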
# [12] = biological target: M-phase phosphoprotein 8 (Homo sapiens) (UniProt Q99549); experiment: qHTS Validation Assay for Inhibitors for MPP8 Chromodomain Interactions with Methylated Histone Tails (AID 488949); also: potency is read from the fitted curve at half-maximal effect; nearly all actives have a fitted effect of over 55% in size
# Sequence of UniProt Q99549 (Q99549 whole entry, looked up): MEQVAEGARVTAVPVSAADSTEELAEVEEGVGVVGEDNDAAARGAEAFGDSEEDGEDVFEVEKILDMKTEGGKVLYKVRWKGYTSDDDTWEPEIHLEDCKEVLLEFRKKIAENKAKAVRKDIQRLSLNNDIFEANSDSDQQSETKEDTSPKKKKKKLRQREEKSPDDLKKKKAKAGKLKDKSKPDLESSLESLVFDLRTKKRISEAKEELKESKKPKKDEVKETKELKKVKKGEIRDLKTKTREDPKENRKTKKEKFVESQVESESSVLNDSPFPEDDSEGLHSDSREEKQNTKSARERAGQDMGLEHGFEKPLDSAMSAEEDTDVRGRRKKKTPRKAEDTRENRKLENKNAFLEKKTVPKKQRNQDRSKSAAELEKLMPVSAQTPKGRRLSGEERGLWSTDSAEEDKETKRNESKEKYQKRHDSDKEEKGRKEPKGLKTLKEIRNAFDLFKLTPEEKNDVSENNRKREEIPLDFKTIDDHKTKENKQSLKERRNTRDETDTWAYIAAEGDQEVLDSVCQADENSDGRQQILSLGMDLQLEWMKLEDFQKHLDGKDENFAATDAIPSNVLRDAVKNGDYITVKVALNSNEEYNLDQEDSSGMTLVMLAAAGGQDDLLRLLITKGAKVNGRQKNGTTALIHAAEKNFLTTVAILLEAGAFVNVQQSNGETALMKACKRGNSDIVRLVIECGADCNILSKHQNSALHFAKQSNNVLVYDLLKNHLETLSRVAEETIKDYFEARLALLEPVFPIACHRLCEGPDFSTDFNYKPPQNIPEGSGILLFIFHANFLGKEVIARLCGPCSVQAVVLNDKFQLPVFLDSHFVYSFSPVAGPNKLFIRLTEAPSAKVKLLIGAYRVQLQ
# How it was run: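 Disruption of the preformed MPP8–trimethyl-H3K9 peptide complex (both 50 nM, 30 min, RT) is measured after 30 min compound exposure, using AlphaScreen proximity beads; aurintricarboxylic acid titration serves as plate control.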
# [13] = NFAT Signaling Pathway (AID 444; active = well fitted curve in either direction with a large enough effect, not every such curve was filed as active; inconclusive = small, poorly fitted or top-dose-only effect, or another doubt;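 also: carbachol stimulus at about its EC50 of 1 µM final; % is scaled to controls: 0 for no effect and ±100 for the full control effect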); conditions: Jurkat NFAT-bla M1, carbachol, beta-lactamase ratio, 5 h; at 7.69 µM (top of the series) unless noted
# How it was run: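 Read-out: CCF4 FRET ratio (460 nm/530 nm) after 1 h RT dye loading, used for %activity and AC50 from titration series. Cells: Jurkat NFAT-β-lactamase/M1 line, treated with compound plus 1 uM carbachol for 5 h, 37 °C.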
# [14] = qHTS assay to identify inhibitors of the type 1 interferon - major histocompatibility complex class I in skeletal muscle: Counter screen cell viability and HiBit confirmation (AID 1347412); conditions: iHSKM muscle cells + IFN-b, HiBiT or CellTiter-Glo, 24 h; Viability; also: potency is read from the fitted curve at half-maximal effect; nearly all actives have a fitted effect of over 60% in size
# How it was run: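 Myoblasts (C25cl48, HLA-B HiBiT) seeded in medium without dexamethasone, IFN-b 4 ng/ml added except unstimulated columns; 1 hr later compounds pinned (12-pt 1:3, top 46 uM final). Incubated 24 hrs, lysed 10 min, luminescence measured.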
# [15] = Validation screen for small molecules that induce DNA re-replication in SW480 colon adenocarcinoma cells (AID 504364); also: potency is read from the fitted curve at half-maximal effect
# How it was run: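 250 cells/well; compound pinned in; 48 hr, 37 C, 5% CO2; Hoechst added, 40 min; nuclear fluorescence imaged, 405 ex / 500-530 em; re-replication scored as increase in high-intensity nuclei.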
# [16] = biological target: Atrial natriuretic peptide receptor 2 (Homo sapiens) (UniProt P20594); experiment: Natriuretic polypeptide receptor (hNpr2) antagonism - Pilot subtype selectivity assay (AID 1347050; calls by dose curve; also: potency is read from the fitted curve at half-maximal effect; as to activity change, negative = inhibition: % is scaled to controls: 0 for no effect and ±100 for the full control effect)
# Sequence of UniProt P20594 (P20594 whole entry, looked up): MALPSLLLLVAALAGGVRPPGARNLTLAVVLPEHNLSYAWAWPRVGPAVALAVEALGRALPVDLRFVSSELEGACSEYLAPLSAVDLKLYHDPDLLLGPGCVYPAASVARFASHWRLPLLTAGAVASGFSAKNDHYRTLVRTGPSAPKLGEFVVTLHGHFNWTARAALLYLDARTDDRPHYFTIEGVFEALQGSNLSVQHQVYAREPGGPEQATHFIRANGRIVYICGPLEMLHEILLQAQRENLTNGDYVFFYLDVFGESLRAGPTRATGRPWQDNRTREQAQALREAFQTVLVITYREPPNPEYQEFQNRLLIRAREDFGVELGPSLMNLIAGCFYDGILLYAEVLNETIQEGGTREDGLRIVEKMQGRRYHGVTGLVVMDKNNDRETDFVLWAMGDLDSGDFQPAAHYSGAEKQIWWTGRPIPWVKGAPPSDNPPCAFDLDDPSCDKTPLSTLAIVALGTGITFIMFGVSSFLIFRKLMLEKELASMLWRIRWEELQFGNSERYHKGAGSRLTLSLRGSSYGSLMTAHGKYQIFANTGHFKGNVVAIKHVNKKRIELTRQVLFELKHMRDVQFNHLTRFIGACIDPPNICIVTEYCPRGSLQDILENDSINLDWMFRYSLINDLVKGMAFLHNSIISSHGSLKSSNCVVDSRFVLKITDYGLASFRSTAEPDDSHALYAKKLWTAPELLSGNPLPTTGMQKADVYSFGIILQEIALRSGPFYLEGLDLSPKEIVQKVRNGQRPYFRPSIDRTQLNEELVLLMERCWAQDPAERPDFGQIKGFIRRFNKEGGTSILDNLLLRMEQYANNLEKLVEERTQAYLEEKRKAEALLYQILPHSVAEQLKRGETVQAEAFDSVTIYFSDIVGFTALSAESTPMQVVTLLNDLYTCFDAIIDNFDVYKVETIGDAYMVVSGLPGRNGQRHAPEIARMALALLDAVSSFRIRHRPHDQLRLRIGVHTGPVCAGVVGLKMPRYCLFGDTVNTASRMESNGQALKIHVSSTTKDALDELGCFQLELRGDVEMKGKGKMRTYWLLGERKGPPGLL
# How it was run: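 Pilot selectivity screen against hNpr2: HEK293 cGMP-sensor cells are treated with LOPAC1280 compounds, then with hNppC peptide at 1 nM final. The cGMP-driven luminescence change over 20 min at room temperature is the read-out.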
# [17] = biological target: Papain (Carica papaya) (UniProt P00784); experiment: Primary qHTS assay for inhibitors of the protease papain (AID 1645873);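 also: papain turnover of Z-FR-AMC read as the AMC fluorescence gain over 10 min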; also: potency is read from the fitted curve at half-maximal effect
# Sequence of UniProt P00784 (P00784 whole entry, looked up): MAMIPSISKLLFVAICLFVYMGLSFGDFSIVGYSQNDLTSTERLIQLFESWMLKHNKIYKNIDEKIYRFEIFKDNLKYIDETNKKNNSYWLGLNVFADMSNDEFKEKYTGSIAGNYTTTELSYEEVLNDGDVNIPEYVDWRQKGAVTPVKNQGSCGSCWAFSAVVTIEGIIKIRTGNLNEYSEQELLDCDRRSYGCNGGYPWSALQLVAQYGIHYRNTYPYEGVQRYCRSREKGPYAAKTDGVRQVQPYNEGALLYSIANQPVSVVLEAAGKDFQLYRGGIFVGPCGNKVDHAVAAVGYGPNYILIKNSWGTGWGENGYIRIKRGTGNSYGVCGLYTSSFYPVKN
# [18] = biological target: Tyrosine-protein phosphatase non-receptor type substrate 1 (Homo sapiens) + Leukocyte surface antigen CD47 (Homo sapiens) (UniProt P78324+Q08722); experiment: CD47-SIRPalpha protein protein interaction - Alpha assay qHTS validation (AID 1347059);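 also: bead proximity luminescence from CD47 binding SIRPalpha after compound preincubation with SIRPalpha; potency is read from the fitted curve at half-maximal effect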
# Sequence of UniProt P78324 (P78324 whole entry, looked up): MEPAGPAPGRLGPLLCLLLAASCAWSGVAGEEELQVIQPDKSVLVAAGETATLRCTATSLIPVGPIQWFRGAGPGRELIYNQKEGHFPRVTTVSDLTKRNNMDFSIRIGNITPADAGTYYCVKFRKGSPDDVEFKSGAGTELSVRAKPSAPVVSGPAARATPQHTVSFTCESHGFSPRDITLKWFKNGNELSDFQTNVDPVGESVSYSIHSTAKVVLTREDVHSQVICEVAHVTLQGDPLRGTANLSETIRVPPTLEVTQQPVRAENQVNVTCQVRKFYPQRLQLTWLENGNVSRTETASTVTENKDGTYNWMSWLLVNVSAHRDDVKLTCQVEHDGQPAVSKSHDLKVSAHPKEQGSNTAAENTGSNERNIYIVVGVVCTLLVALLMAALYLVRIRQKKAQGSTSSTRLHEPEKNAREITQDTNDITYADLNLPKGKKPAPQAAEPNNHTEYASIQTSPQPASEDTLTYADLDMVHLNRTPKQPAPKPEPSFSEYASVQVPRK
# Sequence of UniProt P78324 (Q08722 whole entry, looked up): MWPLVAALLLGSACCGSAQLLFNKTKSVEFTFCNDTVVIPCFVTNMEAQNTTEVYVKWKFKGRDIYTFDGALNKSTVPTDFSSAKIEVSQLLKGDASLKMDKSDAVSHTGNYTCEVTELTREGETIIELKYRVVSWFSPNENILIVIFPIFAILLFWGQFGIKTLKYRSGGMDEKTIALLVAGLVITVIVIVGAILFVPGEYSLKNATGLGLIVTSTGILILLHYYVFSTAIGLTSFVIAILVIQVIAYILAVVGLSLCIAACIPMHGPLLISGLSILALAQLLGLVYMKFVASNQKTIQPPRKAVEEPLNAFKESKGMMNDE
# How it was run: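 Binding is measured by AlphaScreen proximity: Ni-NTA acceptor beads capture His-CD47, streptavidin donor beads capture biotin-SIRPalpha. Each of three additions (SIRPalpha with compound, CD47, beads) incubates 30 min at room temperature protected from light.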
# [19] = biological target: D(1A) dopamine receptor (Homo sapiens) (UniProt P21728); experiment: HTS Assay for Allosteric Agonists of the Human D1 Dopamine Receptor: Primary Screen for Agonists (AID 488981); also: potency is read from the fitted curve at half-maximal effect
# How it was run: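 Calcium flux in an inducible, force-coupled HEK293 Trex D1 line (overnight at 30 C): agonist mode is the 180 s kinetic read after compound; potentiator mode is the following 180 s read after dopamine at EC20.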
# Tags tell the direction and shape of the fitted curve or compound fluorescence and quenching.
structure (smiles),measurement,setting,value
CC(=O)NCCc1c[nH]c2ccccc12,Potency,[1],"inconclusive: 19 µM [inhibitor, single point]"
C[N+]1(C)CCc2cc3c(cc2[C@H]1[C@@H]1OC(=O)c2c1ccc1c2OCO1)OCO3,Potency,[2],inactive
CCCN(CCC)CCc1ccc(O)c(O)c1,Potency,[3],active: 1.78 µM
COC(=O)N1CCN(C(=O)Cc2ccc(Cl)c(Cl)c2)C(CN2CCCC2)C1 (centres undefined),Potency,[4],"inconclusive: 13.1 µM [inhibitor, single point]"
same,Potency,[3],inactive
NC(=O)COc1c(F)cc(SCCNS(=O)(=O)c2ccccc2)cc1F,Potency,[5],"inconclusive: 12.6 µM [inhibitor, partial curve, poor fit]"
same,activity change,[6],inconclusive: -46.1%
same,Potency,[7],"inconclusive: 20.6 µM [falling, partial curve]"
Oc1ccc2c3c1O[C@H]1c4[nH]c5ccccc5c4C[C@@]4(O)C(C2)N(CC2CC2)CCC314 (some centres undefined),Potency,[2],"inconclusive: 14.7 µM [falling, single point]"
same,Potency,[8],"inconclusive: 14.7 µM [falling, single point]"
same,Potency,[7],inactive
O=[N+]([O-])/C=C/c1ccc2c(c1)OCO2,Potency,[2],"inconclusive: 2.93 µM [falling, full curve, poor fit]"
same,Potency,[8],active: 2.07 µM
same,Potency,[9],active: 7.52 µM
same,Potency,[3],"inconclusive: 10 µM [inhibitor, single point]"
C=CCN1C[C@@H](C)N([C@H](c2ccc(C(=O)N(CC)CC)cc2)c2cccc(OC)c2)C[C@@H]1C,Potency,[10],"inconclusive: 0.006 µM [falling, full curve, poor fit]"
CN(C(=O)Cc1ccc(Cl)c(Cl)c1)C(CN1CCCC1)c1cccc(OCC(=O)O)c1 (centres undefined),Potency,[8],inactive
O=C1C=CC(=O)C=C1,Potency,[11],inactive
same,Potency,[12],"inconclusive: 50.1 µM [inhibitor, partial curve]"
CCCN1CCc2cc(O)cc3c2[C@H]1Cc1ccc(O)c(O)c1-3,"activity change, negative = inhibition",[13],inconclusive: -35.9% [inhibitor] [at 38 µM]
same,Potency,[11],"inconclusive: 10 µM [inhibitor, partial curve]"
same,Potency,[5],"inconclusive: 14.1 µM [inhibitor, partial curve, poor fit]"
same,Potency,[2],"inconclusive: 14.7 µM [falling, single point]"
same,Potency,[8],"inconclusive: 23.3 µM [falling, single point]"
same,activity change,[6],inconclusive: -34.9%
same,Potency,[9],"inconclusive: 21.2 µM [inhibitor, partial curve, poor fit]"
same,Potency,[3],active: 0.631 µM
C[C@@H]1O[C@@H](O[C@H]2C[C@@H](O)[C@]3(CO)[C@@H]4C(CC[C@]3(O)C2)[C@@]2(O)CC[C@H]([C@@H]3COC(=O)C3)[C@@]2(C)C[C@H]4O)[C@H](O)[C@H](O)[C@H]1O (some centres undefined),Potency,[9],inactive
same,Potency,[3],inactive
same,Potency,[7],"inconclusive: 1.64 µM [cytotoxic, full curve]"
same,Potency,[14],"inconclusive: 0.279 µM [cytotoxic, full curve]"
C[C@]12CCC3C(CC[C@H]4C[C@H](O)CC[C@]34C)C1CC[C@@H]2C(=O)CO (some centres undefined),activity change,[6],inconclusive: -30.7%
same,Potency,[4],"inconclusive: 16.5 µM [inhibitor, single point]"
same,Potency,[7],"inconclusive: 32.6 µM [inhibitor, partial curve, poor fit]"
C[C@]12Cc3cn4c(nc3C=C1CCC1C2CC[C@@]2(C)[C@H]1CC[C@@]2(O)C#N)nc1ccccc14 (some centres undefined),Potency,[8],inactive
same,Potency,[6],active: 13 µM
same,Potency,[7],active: 13 µM
same,Potency,[15],active: 23.1 µM
same,Potency,[16],"inconclusive: 16.5 µM [inhibitor, single point]"
same,Potency,[17],"inconclusive: 25.1 µM [inhibitor, single point]"
CO[C@H]1CC=C2CCN3CCC4=C(CC(=O)OC4)[C@]23C1,Potency,[4],"inconclusive: 2.62 µM [activator, single point]"
same,Potency,[9],inactive
COc1ccc2c(c1)c(CCN1CCOCC1)c(C)n2C(=O)c1cccc(Cl)c1Cl,Potency,[12],"inconclusive: 23.8 µM [inhibitor, single point]"
same,Potency,[7],"inconclusive: 23.1 µM [inhibitor, single point]"
COc1ccc2c(c1)[C@@]13CCCC[C@H]1[C@@H](C2)NCC3,activity change,[6],inconclusive: 1.94%
same,Potency,[4],"inconclusive: 18.5 µM [inhibitor, single point]"
same,Potency,[16],inactive
COc1ccc2[nH]c3c(c2c1)CCNC3,Potency,[12],"inconclusive: 89.1 µM [inhibitor, single point]"
same,Potency,[7],"inconclusive: 11.6 µM [inhibitor, partial curve, poor fit]"
same,Potency,[18],"inconclusive: 6.56 µM [inhibitor, partial curve]"
same,Potency,[17],"inconclusive: 35.5 µM [inhibitor, single point]"
C[C@H](N)CN1CCc2ccc(Br)cc21,"activity change, negative = inhibition",[13],inconclusive: -31.9% [inhibitor] [at 38 µM]
same,Potency,[5],"inconclusive: 15.8 µM [inhibitor, partial curve, poor fit]"
same,Potency,[19],"inconclusive: 12.6 µM [activator, partial curve]"
same,Potency,[17],inactive
NC(Cc1cc(O)c(O)cc1O)C(=O)O (centres undefined),Potency,[9],active: 10.6 µM
same,Potency,[10],active: 1.69 µM
same,Potency,[18],active: 0.927 µM
same,Potency,[17],"inconclusive: 14.1 µM [inhibitor, partial curve]"
